Among the data in PubChem BioAssay AID463173 (ICCB-Longwood Screening Facility, Harvard Medical School, 2010) are survival values, retold here.

The structures appear in SMILES notation. Out of some 52,000 compounds screened, about 1,700 (3.3%) were called active. Rule as the data show it: active = survival mostly below about 52% (no sharp cut-off); inactive = mostly above about 56%. The list shows a part of the results.

The subject of this experiment is Wild type. Description: growth inhibition of S. aureus wild type versus tarO mutant, primary screen, teichoic acid synthesis inhibitors, RN4220, OD600 (AID 463173). The note with it: S. aureus RN4220 wild type/DeltatarO growth, OD600, 18 h, hits give low values, screened at 18.75 µg/mL (by protocol).
Consider `CCCCOc1ccc(C2c3c(-c4ccccc4O)n[nH]c3C(=O)N2Cc2ccncc2)cc1OC` (centres undefined), for which the survival is inactive: 55%.

In the case of `O=C(Nc1nc(-c2ccc(Br)cc2)ns1)c1ccc(F)cc1`, the survival was inactive: 70%.

Take `CCN(CCCNC(=O)c1cc2c(=O)[nH]c3ccccc3c2s1)c1ccccc1`: the survival is inactive: 86%.

For `CCC1CCCCN1S(=O)(=O)c1ccc(NC(=O)c2cc(=O)c3ccccc3o2)cc1` (centres undefined), the survival was inactive: 85%.

With `N#Cc1ccc2ccn(CC(N)=O)c2c1`, the survival was inactive: 95%.

For the compound `CCOc1ccc(-n2c(C)nc3c(cnn3-c3ccc(C)cc3)c2=O)cc1`, the survival is inactive: 81%.

In the case of `CC(=O)c1cccc(NC(=O)Cn2c(SCC(=O)Nc3ccc(F)cc3)nc3ccccc32)c1`, the survival was active: -3%.

`CCCCn1nnnc1SCC(=O)c1cc(OC)ccc1OC`: the survival was inactive: 129%.

As to `Cc1c2cnn(CC(=O)NCc3ccccc3)c(=O)c2c(C)n1Cc1cccc(Cl)c1`, the survival was inactive: 89%.

Take `Cc1ccc(C=N/C(=N\NC(=O)c2ccccc2)c2ccccc2)o1`: the survival is inactive: 119%.

For the compound `COCCCNC(=O)CSc1nc(-c2cccc(F)c2)[nH]c1-c1ccccc1`, the survival is inactive: 91%.

For `O=C(CN1CCN(Cc2ccccc2Cl)C1=O)NCc1ccccc1Cl`, the survival is inactive: 80%.

As for `CC(=O)Nc1cccc(NC(=O)Cn2c(-c3cccnc3)ccc(C#N)c2=O)c1`, the survival is inactive: 89%.

As for `COc1ccc(-c2c(C#N)c(SCC(=O)Nc3ccccc3C)nc(C)c2C(=O)Nc2ccccc2)cc1OC`, the survival is inactive: 99%.

Take `COc1ccc(C(=O)SC2=NCCS2)cc1`: the survival was inactive: 117%.

On to `N#C/C(=C\c1ccc(Cl)cc1)C(=O)NCC1CCCO1` (centres undefined), for which the survival was inactive: 67%.

Regarding `COc1ccc(CCN2C(=O)N(c3ccc(F)cc3)C(=O)C2CC(=O)Nc2ccccc2)cc1` (centres undefined), the survival is inactive: 70%.

Take `CCOc1ccc(NC(=O)Cc2coc3ccc(C)cc23)cc1`: the survival was inactive: 142%.

Take `COc1ccc(-c2cc(C(F)F)n3ncc(C(=O)Nc4cc(OC)ccc4OC)c3n2)cc1`: the survival was inactive: 64%.

For `CCc1cnc2c(c1SCC(=O)Nc1ccc(Cl)cc1)c(=O)n(C)c(=O)n2C`, the survival was inactive: 128%.

With `CNc1nc(-c2ccc3c(c2)CCN3S(=O)(=O)c2ccccc2)cs1`, the survival was inactive: 102%.

`CCC(Nc1ccc(-c2nc(-c3ccco3)no2)cc1[N+](=O)[O-])c1ccccc1` (centres undefined): the survival is inactive: 95%.

Consider `Cc1cccc(-c2nc(CCNC(=O)Cc3ccc(F)cc3)cs2)c1`, for which the survival is active: 14%.

Take `COc1ccccc1NC(=O)CSc1ccc(-c2sc(C)nc2C)nn1`: the survival is inactive: 81%.

On to `COc1cccc(CNCCSc2nnnn2C)c1OCc1ccc(Cl)cc1Cl`, for which the survival is inactive: 79%.

As for `COc1ccccc1CNC(=O)Cn1c(=O)oc2cc(S(=O)(=O)N3CCC(C)CC3)ccc21`, the survival is inactive: 136%.

For `COC(=O)[n+]1ccc(N2CCOCC2)cc1`, the survival was inactive: 137%.

`COc1ccc(C2c3cccn3CCN2S(=O)(=O)c2ccccc2[N+](=O)[O-])cc1OC` (centres undefined): the survival is inactive: 135%.

Consider `CC(CNC(=O)Cn1ccc2cc(S(=O)(=O)N3CCCCC3)ccc21)c1ccccc1` (centres undefined), for which the survival was inactive: 72%.

For the compound `O=C(NCC(c1ccc2c(c1)OCO2)N1CCOCC1)c1ccccc1F` (centres undefined), the survival was inactive: 101%.

Turning to `CCc1ccc2occ(CC(=O)Nc3c(C(=O)Nc4ccc(OC)cc4)oc4ccccc34)c2c1`, the survival is inactive: 87%.

For the compound `O=C(NCc1ccccc1)c1nnc(Cc2cccc(F)c2)o1`, the survival is inactive: 89%.

On to `Cc1cccn2cc(-c3cccc(NS(=O)(=O)c4ccc(Cl)c(Cl)c4)c3)nc12`, for which the survival is inactive: 61%.

Regarding `CCc1ccc(CNC(=O)CCc2c(C)nn(-c3ccc(N4CCCCC4)nn3)c2C)cc1`, the survival was inactive: 73%.

As to `Cc1cc2nn(-c3ccc(F)cc3)nc2cc1NC(=O)c1ccc(OC(C)C)cc1`, the survival is inactive: 85%.

With `C1CCC(CNCC2CCCO2)CC1` (centres undefined), the survival was inactive: 102%.

Regarding `Cc1ccc2nc(Cl)c3cc(C(=O)N(C)C4CCCCC4)sc3c2c1`, the survival is inactive: 35%.

Take `CCOc1ccc(CCNC(=O)C2CCN(C(=O)N3CC(CC)Oc4ccc(C)cc43)CC2)cc1` (centres undefined): the survival was inactive: 86%.

Regarding `CCn1c(CNC(=O)c2ccc(OC)cc2)nnc1SCC(=O)Nc1cccc(C)c1C`, the survival is inactive: 139%.

For `CCOC(=O)c1c(C)oc2nc(C)nc(NCC3CCN(Cc4cccc(C)c4)CC3)c12`, the survival is inactive: 82%.

In the case of `Cc1ccc(NC(=O)CSc2nc3ccc(NC(=O)c4cccs4)cc3s2)c(C)c1`, the survival is inactive: 86%.

As for `COc1cccc(Cn2c(=O)n(-c3cccc(Cl)c3C)c(=O)c3c4c(sc32)CN(C(C)=O)CC4)c1`, the survival is inactive: 75%.

Consider `Cc1ccc(NC(=O)Cn2c(=O)n(-c3ccc(CC(=O)NCC4CCCO4)cc3)c(=O)c3ccccc32)cc1` (centres undefined), for which the survival is inactive: 104%.

As for `CCCNC(=O)N1CCc2cc(OC)c(OC)cc2C1c1cc2cc3c(cc2[nH]c1=O)OCO3` (centres undefined), the survival is inactive: 115%.

`CCOc1ccc(-n2c(=O)c3c4c(sc3n(Cc3cccc(Cl)c3)c2=O)CCCC4)cc1`: the survival was inactive: 71%.

In the case of `CC1=C(c2ccc(C)c(C)c2)S(=O)(=O)N=C1N1CCN(c2cccc(C(F)(F)F)c2)CC1`, the survival was inactive: 85%.

As for `CCCCN1CC(c2nc3ccccc3n2CCCCOc2c(C)cccc2C)CC1=O` (centres undefined), the survival was inactive: 61%.

Regarding `CCCC(=O)N(c1ccc2oc(-c3ccccc3)c(C(=O)OCC)c2c1)S(=O)(=O)c1ccc(C)cc1`, the survival was inactive: 153%.

With `COCCCNC(=O)Cn1c(=O)n(CCCC(=O)NCc2ccc(C)cc2)c(=O)c2ccccc21`, the survival is inactive: 70%.

Take `O=C(NCC(c1ccc2c(c1)OCO2)N1CCOCC1)c1ccc(F)cc1` (centres undefined): the survival was inactive: 65%.

In the case of `Cc1ccc(/C=C(\C#N)c2nc(-c3cc4c(ccc5ccccc54)oc3=O)cs2)cc1`, the survival is inactive: 130%.

For `CCOc1ccc(Sc2cc(C(=O)NCCc3ccc(OC)c(OC)c3)c3ccccc3n2)cc1`, the survival was inactive: 88%.

Take `O=C(Nc1ccccc1)Nc1cccc2nsnc12`: the survival was inactive: 123%.

On to `CC(C)CN(c1ccccc1)S(=O)(=O)c1nnc(NC(=O)c2ccco2)s1`, for which the survival is inactive: 47%.

For the compound `CC(=O)c1c(C)oc2ccc(N(C(=O)Oc3ccccc3)S(=O)(=O)c3ccc(Br)cc3)cc12`, the survival was inactive: 121%.

As to `Cc1cccc(C(=O)Nc2ccccc2-c2nc(-c3ccccc3)no2)c1`, the survival is inactive: 86%.

In the case of `CCn1cc(C(=O)N2CCN(c3ccccc3OC)CC2)c(=O)c2cc(S(=O)(=O)N3CCCCC3)ccc21`, the survival was inactive: 90%.

As to `COc1ccc(-c2nn(-c3ccccc3)cc2C(=O)Nc2ccccc2OC)cc1`, the survival is active: 3%.

With `CCOc1ccccc1NC(=O)Cn1c(=O)n(Cc2ccc(C(=O)NCCCOC)cc2)c(=O)c2ccccc21`, the survival was inactive: 97%.

Turning to `COc1cc(OC)c(NC(=O)c2oc3ccc4c(c3c2C)C(=O)CC(C)(C)O4)cc1Cl`, the survival is inactive: 113%.

Regarding `O=C(CCSCc1ccccc1F)N1CCN(c2ccc(F)cc2)CC1`, the survival is inactive: 63%.

As for `COc1ccc(NC(=O)N2CCc3c(sc4c3CCCC4)C2c2ccc(F)cc2)cc1` (centres undefined), the survival is inactive: 95%.

Regarding `Cn1cc(C(=O)NCc2ccc(F)cc2)c(=O)c2cc(S(=O)(=O)N3CCCCC3)ccc21`, the survival was inactive: 74%.

On to `CC(C)c1ccc(Nc2nc3ccc(C(=O)c4ccccc4)cc3n3cnnc23)cc1`, for which the survival is inactive: 72%.

For the compound `CCn1c(=O)c2cc(C(=O)N(C)c3cc(C)ccc3C)sc2c2ccccc21`, the survival is inactive: 125%.

With `Cc1ccc(NC(=O)Nc2nnc(N3CCCCC3)s2)c(C)c1`, the survival is inactive: 97%.

With `CCc1ccc(CNC(=O)c2cc3c(=O)oc4ccc(C)cc4c3s2)cc1`, the survival was inactive: 91%.

For `CCN(C(=O)c1sc2nc3n(c(=O)c2c1C)CCCCC3)c1ccccc1F`, the survival is inactive: 80%.

Regarding `CCNc1nc(NCC)nc(N(n2cnnc2)S(=O)(=O)c2ccc(C)cc2)n1`, the survival is inactive: 45%.

Regarding `CN(C)C(=O)c1ccc(S(=O)(=O)NCc2ccccc2Cl)s1`, the survival is inactive: 87%.

Turning to `COc1cc(OC)cc(-n2c(=O)[nH]c3cc(C(=O)NCCc4ccc(C)cc4)ccc3c2=O)c1`, the survival is inactive: 95%.

As to `COc1ccc(NC(=O)c2ccc3snnc3c2)cc1OC`, the survival was inactive: 103%.

Regarding `COc1ccc(-c2cc(C(F)(F)F)nc(SCC(=O)NCc3ccc(F)cc3)n2)cc1`, the survival is inactive: 90%.

With `COc1cccc(NC(=O)Cn2c(=O)n(Cc3ccccc3)c(=O)c3c4c(sc32)CN(C(C)=O)CC4)c1`, the survival was inactive: 131%.

Take `Cn1c(=O)c(C(=O)NCCN2CCNCC2)c(O)c2ccccc21`: the survival was inactive: 105%.

Consider `COc1ccc(-n2cc3c(c2-c2cccc(Br)c2)c(=O)n(C)c(=O)n3C)cc1OC`, for which the survival was inactive: 52%.

For the compound `CCCSc1nsc(NC(=O)CC)n1`, the survival is inactive: 121%.

With `CCCCc1ccc(NC(=O)Cn2cnc3c2c(=O)n(C)c(=O)n3C)cc1`, the survival was inactive: 112%.

`COC(=O)c1ccccc1NC(=O)c1nc(SCc2ccccc2C)ncc1Cl`: the survival was inactive: 90%.

Consider `Cc1cc(C)cc(C(=O)Nc2ccc(-c3cn4cccnc4n3)cc2)c1`, for which the survival is inactive: 86%.

Take `O=C(Cn1cnc2ccccc2c1=O)Nc1ccc(S(=O)(=O)Nc2nccs2)cc1`: the survival was inactive: 103%.

In the case of `O=C(NC1CCCCC1)C(Cc1ccccc1)N1C(=O)C2C3C=CC(C3)C2C1=O` (centres undefined), the survival was inactive: 94%.

Regarding `Cc1ccc(Cn2cc(CCC(=O)NC3CCCCC3)c3ccccc32)cc1`, the survival is inactive: 87%.

Turning to `Cc1cc(=O)[nH]c2nnc(SCc3cccc(F)c3)n12`, the survival is inactive: 85%.

`O=c1c2oc3ccccc3c2n(Cc2ccccc2F)c(=O)n1Cc1ccco1`: the survival was inactive: 83%.

With `Cc1c(CNCCCc2ccccc2)c(C(=O)O)c(C)n1Cc1ccc(Cl)cc1`, the survival is inactive: 106%.

Regarding `COC(=O)c1ccc(CSc2nc3ccccc3o2)cc1`, the survival was inactive: 127%.

Regarding `COc1ccccc1NC(=O)CN1C(=O)C(c2ccc(F)cc2)=NC1(C)C`, the survival was inactive: 92%.

With `Cc1cccc(N2CCN(C(=O)Nc3ccc(F)cc3)CC2C)c1` (centres undefined), the survival was inactive: 100%.
